PubChem BioAssay AID588855 (National Center for Advancing Translational Sciences (NCATS), 2011)
The campaign covered roughly 410,000 compounds. About 5,000 (1.2%) were called active. Inconclusive results, whose numbers are uncertain, are shown with a selection of clear calls. The call rests on the fitted dose curve; in most records, active means well fitted inhibition curve with a large enough effect; inconclusive means small, poorly fitted or top-dose-only effect; inactive means no such curve, though single readings can be large or run the other way. A potency beside an inconclusive call is a rough fit, not a confirmed value.

Experiment: qHTS for Inhibitors of TGF-b; further: nearly all actives have a fitted effect of over 65% in size
Settings: HepG2 CAGA-GFP TGF-b/SMAD3 reporter, GFP fluorescence, 18 h, TGF-beta stimulated, 500 pg/mL final; series mostly up to 46.1 µM
Summary of the method: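 First, reporter cells (HEPG2 CAGA-GFP) rested 2 h at 37 degrees C. Next, compounds were pinned in and TGF-beta added to 500 pg/mL final. After 18 h, GFP was imaged per cell and summed per well.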
Potency means the concentration at half of the fitted maximal effect; tags describe the fitted curve by direction and shape.

SMILES	Potency
CCCCCCN1C[C@H](O)[C@@H](n2cc(-c3ccc(F)cc3)nn2)C[C@@H]1c1ccccc1	inconclusive: 25.1 µM [inhibitor, single point]
COCCNc1cc(N2CCN(C3CCCCC3)CC2)c2noc3c2c1C(=O)c1ccccc1-3	inactive
O=S(=O)(c1cccc(C(F)(F)F)c1)N1CCN(CC(O)COCc2ccccc2)CC1 (stereo unspecified)	inconclusive: 22.4 µM [inhibitor, single point]
O=C(C1CCN(C2CC(=O)N(c3ccc(Cl)cc3)C2=O)CC1)N1CCOCC1 (stereo unspecified)	inconclusive: 6.31 µM [inhibitor, single point]
CC1(Cc2cc(Cl)ccc2C(F)(F)F)C(=O)Nc2ccc(OC(F)(F)F)cc21 (stereo unspecified)	inconclusive: 35.5 µM [inhibitor, single point]
CC1CN(S(=O)(=O)c2cc(C(=O)NC(C)c3cccnc3)ccc2Cl)CC(C)O1 (stereo unspecified)	inconclusive: 14.1 µM [inhibitor, single point]
CCCCCc1ccc(CC(=O)Nn2c(C)nc3ccccc3c2=O)cc1	inconclusive: 7.94 µM [inhibitor, partial curve, poor fit]
CC(C)Nc1nnc(SCC(=O)c2c(N)n(Cc3ccccc3)c(=O)n(C)c2=O)s1	inconclusive: 3.98 µM [inhibitor, single point]
c1ccc(Cc2ccc(OCCn3ccnc3)cc2)cc1	inconclusive: 20 µM [inhibitor, partial curve, poor fit]
CCOC(=O)N1CCN(S(=O)(=O)Cc2ccccc2)CC1	inconclusive: 3.55 µM [inhibitor, single point]
CC(=O)c1ccc(NC(=O)C2CCC(CNS(=O)(=O)c3cccc4nsnc34)CC2)cc1 (stereo unspecified)	inactive
COc1ccc(C(=O)NC(=S)N(Cc2ccccc2)Cc2ccccc2)cc1	inconclusive: 17.8 µM [inhibitor, partial curve]
Cc1ccc(Cc2c(-c3ccc(Cl)cc3)nc3c(Cl)cc(C(F)(F)F)cn23)cc1	inconclusive: 31.6 µM [inhibitor, single point]
COCCn1cnnc1SCC(=O)Nc1cccc(S(=O)(=O)N(C)c2ccccc2)c1	inactive
CCOC(=O)CC1(C)SC(NC(C)=O)=NN1C(C)=O (stereo unspecified)	inconclusive: 35.5 µM [inhibitor, single point]
COCCN1C(=O)c2[nH]nc(-c3c(C)cc(C)cc3O)c2C1c1cccc(O)c1 (stereo unspecified)	inconclusive: 11.2 µM [inhibitor, single point]
O=c1[nH]c2cc3c(cc2cc1CN(CCc1ccccc1)Cc1nnnn1CC1CCCO1)OCO3 (stereo unspecified)	inconclusive: 2.82 µM [inhibitor, partial curve, poor fit]
CCCc1nn2c(=O)cc(CSCC(=O)Nc3ccc(F)cc3)nc2s1	inactive
CCN(C(=O)COC(=O)C1CCC(C(C)(C)C)CC1)c1c(N)n(Cc2ccccc2)c(=O)[nH]c1=O (stereo unspecified)	inactive
Cc1ccc(N2C(=O)c3n[nH]c(C)c3C2c2ccc(C(C)C)cc2)cc1 (stereo unspecified)	inconclusive: 11.2 µM [inhibitor, partial curve, poor fit]
Cc1c(NC(=S)N/N=C/c2cccc(O)c2)c(=O)n(-c2ccccc2)n1C	inactive

SMILES	Potency
CCN(CC)CCN(Cc1cc2cc(C)c(C)cc2[nH]c1=O)C(=S)NCc1ccco1	inconclusive: 22.4 µM [inhibitor, single point]
Cc1ccc(-n2cccn2)c(CN2CCCC(CNC(=O)c3ccc(F)cc3)C2)c1 (stereo unspecified)	inconclusive: 35.5 µM [inhibitor, single point]
COc1ccc(NC(=S)Nc2ccccc2C(F)(F)F)cc1	inactive
Cc1nc(/N=C(\N)NC(=O)N2c3ccccc3Sc3ccccc32)nc2ccccc12	inconclusive: 0.794 µM [inhibitor, full curve, poor fit]
CN(C)c1ccc(NC(=O)Cn2c(SCc3ccc(F)cc3)nc3cccnc32)cc1	inconclusive: 1.12 µM [inhibitor, full curve, poor fit]
Cc1cc([N+](C)(C)C)cc(C)c1/C=C/c1ccnc2ccccc12	inactive
COc1cccc(N2CCN(C(=O)CN3C(=O)NC(C)(c4ccc5ccccc5c4)C3=O)CC2)c1 (stereo unspecified)	inactive
O=C(Cn1cnc2c(nnn2Cc2ccc(F)cc2)c1=O)NC1CCCC1	inconclusive: 35.5 µM [inhibitor, single point]
COc1ccc(-c2cc(CCC(=O)N3CCN(c4cc(C)ccc4C)CC3)[nH]n2)cc1	inconclusive: 28.2 µM [inhibitor, single point]
CCCc1cc(C(=O)NNC(=S)Nc2cccc(C)c2)cs1	inconclusive: 35.5 µM [inhibitor, single point]
Cc1cc(Cl)ccc1OC(C)C(=O)Nc1ccc([N+](=O)[O-])cn1 (stereo unspecified)	inactive
CC(=O)CCS(=O)(=O)c1ccc(Oc2ccc(S(=O)(=O)CCC(C)=O)cc2)cc1	inconclusive: 35.5 µM [inhibitor, single point]
O=C(c1cccc(C(=O)N2CCN(c3ccc(F)cc3)CC2)c1)N1CCN(c2ccc(F)cc2)CC1	inconclusive: 35.5 µM [inhibitor, single point]
O=C(/C=C/c1cccc(Cl)c1)c1nc2ccccc2[nH]1	inconclusive: 28.2 µM [inhibitor, single point]
CCCCCCOc1ccc(/C(C)=N/NC2=NCCN2)cc1	inconclusive: 35.5 µM [inhibitor, single point]
CCOC(=O)c1[nH]c2c(c1Cc1ccccc1)C(=O)CC(c1ccc(OC)cc1)C2 (stereo unspecified)	inconclusive: 35.5 µM [inhibitor, single point]
Cn1c(Oc2ccc(F)cc2F)c(C=O)c2ccccc21	inactive
COc1cc(F)ccc1-c1cc(C(=O)Nc2ccc(C)c(NS(C)(=O)=O)c2)[nH]n1	inconclusive: 12.6 µM [inhibitor, single point]
CC(C(=O)Nc1ccccc1Sc1ccccc1)N(c1ccccc1)S(C)(=O)=O (stereo unspecified)	inconclusive: 35.5 µM [inhibitor, single point]
COc1ccc(N2C(=O)CSC23C(=O)N2CCCc4cccc3c42)cc1 (stereo unspecified)	inactive
